# Screen size: about 310,000 compounds; about 2,200 (0.71%) showed an effect of 50% or more. The effect is printed as a negative number. The list shows a part of the results.
# Molecular target: human ether-à-go-go-related gene (hERG) potassium channel (human, UniProt Q12809)
# Assay: primary screen, population patch clamp on CHO cells stably expressing hERG
# human ether-à-go-go-related gene (hERG) potassium channel, sequence (Q12809 whole entry, looked up): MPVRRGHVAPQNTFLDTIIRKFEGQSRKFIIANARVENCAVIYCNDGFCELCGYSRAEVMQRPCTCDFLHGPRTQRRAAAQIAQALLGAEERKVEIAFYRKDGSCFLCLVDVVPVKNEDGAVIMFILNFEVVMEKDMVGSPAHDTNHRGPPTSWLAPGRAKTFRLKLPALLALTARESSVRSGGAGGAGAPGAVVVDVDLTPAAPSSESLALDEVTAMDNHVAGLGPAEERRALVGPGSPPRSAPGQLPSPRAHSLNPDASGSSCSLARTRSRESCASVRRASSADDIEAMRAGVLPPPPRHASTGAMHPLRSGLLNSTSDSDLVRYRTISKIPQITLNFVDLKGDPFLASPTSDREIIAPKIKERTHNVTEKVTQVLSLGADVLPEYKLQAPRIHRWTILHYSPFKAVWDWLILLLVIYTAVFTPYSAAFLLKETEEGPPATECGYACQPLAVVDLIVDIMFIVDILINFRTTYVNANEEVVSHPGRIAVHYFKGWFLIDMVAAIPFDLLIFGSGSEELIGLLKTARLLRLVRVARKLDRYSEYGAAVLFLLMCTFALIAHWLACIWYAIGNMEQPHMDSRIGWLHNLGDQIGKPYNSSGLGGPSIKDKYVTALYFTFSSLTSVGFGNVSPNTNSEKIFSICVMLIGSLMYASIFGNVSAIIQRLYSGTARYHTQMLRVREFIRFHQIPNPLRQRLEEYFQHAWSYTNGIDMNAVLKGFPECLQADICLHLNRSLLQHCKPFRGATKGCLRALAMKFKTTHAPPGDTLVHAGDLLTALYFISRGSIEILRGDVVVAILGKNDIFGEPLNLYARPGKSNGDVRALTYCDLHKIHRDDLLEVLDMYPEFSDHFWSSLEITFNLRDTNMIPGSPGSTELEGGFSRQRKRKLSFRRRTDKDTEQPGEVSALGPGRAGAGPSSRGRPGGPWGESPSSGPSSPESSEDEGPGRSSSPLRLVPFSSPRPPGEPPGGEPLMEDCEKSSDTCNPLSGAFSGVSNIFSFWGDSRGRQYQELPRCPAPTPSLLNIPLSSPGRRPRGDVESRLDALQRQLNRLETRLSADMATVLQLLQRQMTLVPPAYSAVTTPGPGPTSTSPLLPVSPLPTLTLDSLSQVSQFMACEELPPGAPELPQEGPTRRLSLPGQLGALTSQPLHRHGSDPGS
row,SMILES,"hERG current change (%, negative = inhibition) at 1uM [%]"
1,C=CCn1c(=O)/c(=C/c2ccc(C)o2)s/c1=C(/C#N)C(=O)c1ccccc1,12.7
2,CCOC(=O)C1=NNC2(c3ccc(C)cc3)C(=O)N(c3ccccc3)C(=O)C12 (stereo not drawn),7.73
3,N#CCCN(CCC#N)c1nnc(-c2ccccc2)s1,-3.09
4,COc1cccc2[nH]c(C(=O)NCCc3ccccc3)cc12,3.62
5,CCN(CCn1cccn1)C(=O)CCc1nnc(-c2ccc3c(c2)OCO3)o1,7.64
6,O=C(c1ccccc1)N1CCC(=O)N1c1ccccc1,8.41
7,CSc1nc2ccc(S(=O)(=O)N3CCc4ccccc43)cc2s1,-13.1
8,CC(C)(C)n1nnnc1C(c1ccc2ncccc2c1)N1CCC(O)CC1 (stereo not drawn),15.4
9,CCSc1nnc(NC(=O)CSc2sc3c(O)cc(=O)[nH]c3c2C#N)s1,8.05
10,COc1cccc(NC(=S)N(CCN(C)C)C(C)c2ccco2)c1 (stereo not drawn),8.16
11,Cc1cc(C(F)(F)F)c2c(N)c(C(=O)Nc3cc(C)on3)sc2n1,11.5
12,COc1cc(OC)c2c(=O)cc(-c3ccccc3)oc2c1,4.72
13,CCOC(=O)C1(CCOc2ccccc2)CCN(Cc2ccc(COC)o2)CC1,-41.9
14,Nc1ccc(N=Nc2ccc(N)cc2)cc1,9.95
15,Brc1cccc(Nc2nc(-c3cccnc3)cs2)c1,22
16,COc1cc(/C=C/c2nc3ccccc3c(=O)n2-c2ccccc2O)ccc1O,11.8
17,Cc1c(N2C(=O)CSC2c2ccc(F)cc2)c(=O)n(-c2ccccc2)n1C (stereo not drawn),13.7
18,Cl.Clc1ccc(CNC2CN3CCC2CC3)cc1 (stereo not drawn),-5.15
19,CCCc1nc(SCC(N)=O)[nH]c(=O)c1CC,9.07
20,COc1ccc(Br)cc1CN(C)CC(=O)NCc1ccc(F)cc1.O=C(O)C(=O)O,8.2
21,C=CCN1C(=O)c2ccc(C(=O)N3CCN(S(=O)(=O)c4cccc(Cl)c4)CC3)cc2C1=O,12.4
22,CC(C)Cc1cc(C(=O)NCCc2ccccc2)no1,11.9
23,CC(C)c1nc(CNC(=O)CC2C(=O)NCCN2Cc2ccoc2)cs1 (stereo not drawn),13.4

row,SMILES,"hERG current change (%, negative = inhibition) at 1uM [%]"
1,C=CCN1C(=O)NC(=O)/C(=C/c2ccoc2)C1=O,9
2,CCCSc1nc(N)c(C#N)c(-c2ccc(C)cc2)c1C#N,15.6
3,c1ccc(CN2CCC(=NNc3nc4ccccc4[nH]3)CC2)cc1,6.93
4,Cc1ccc(NC(=O)COC(=O)Cn2cnc3c2c(=O)n(C)c(=O)n3C)c(Cl)c1,13.3
5,CCN=C(NC#N)SCc1c(F)cccc1Cl,11.8
6,O=S(=O)(NCC1CCCO1)c1ccc2ccccc2c1 (stereo not drawn),7.28
7,O=C(c1ccco1)N1N=C(c2ccc(Br)cc2)CC1(O)C(F)(F)F (stereo not drawn),14
8,CCOC(=O)CSc1nc(C)cc(Oc2ccc(=O)n(C)n2)n1,10.4
9,Cc1ccc(C)c(N2CC(C(=O)Nc3nccs3)CC2=O)c1 (stereo not drawn),19.2
10,Cc1ccc(O)c(C(=O)c2cc(C#N)c(=O)n(-c3nccs3)c2)c1,11.1
11,CCn1c(NCc2cccc(OC)c2OC)nc2ccccc21,-3.11
12,CC(=O)OCCNc1cc(SC(C)C)c2nonc2c1[N+](=O)[O-],3.63
13,O=C(CSc1nnc2scc(-c3ccccc3)n12)N1CCCc2ccccc21,-9.77
14,Cc1cccc(C(=O)OCC(=O)c2c(N)n(CC(C)C)c(=O)n(C)c2=O)c1[N+](=O)[O-],3.03
15,CCNC(=O)CN(C1CCCCC1)S(C)(=O)=O,1.29
16,Cc1c(C)c2ccc(OC(C)C(=O)NCCc3c[nH]c4ccccc34)cc2oc1=O (stereo not drawn),2.89
17,Clc1ccc(CCC(Cn2ccnc2)Sc2c(Cl)cccc2Cl)cc1.O=[N+]([O-])O (stereo not drawn),2.14
18,Cc1ccc(C(=O)OCC(=O)NC2CCCCC2)cc1S(=O)(=O)N1CCCCC1,10.9
19,N/C(=N\OC(=O)COc1ccccc1)c1ccc(Cl)cc1,9.86
20,O=S(=O)(NC1CCCCC1)c1ccc(-c2csnn2)s1,1.02
21,O=C(Nc1ccc(N2CCOCC2)cc1)C1CCN(S(=O)(=O)Cc2ccccc2)CC1,19.2
22,CCOC(=O)c1ccccc1NC(=O)COC(=O)CN1C(=O)NC2(CCCC2)C1=O,1.63
23,CC(=O)OC(COc1ccccc1)Cn1cnc2ccccc21 (stereo not drawn),9.27

row,SMILES,"hERG current change (%, negative = inhibition) at 1uM [%]"
1,CCN(C(=O)CCc1nnc2ccc(N3CCC4(CC3)OCCO4)nn12)c1ccccc1,13.1
2,CCCNC(=O)NCCc1ccncc1,3.65
3,CCCNC(=O)NCCc1c(C)[nH]c2ccccc12,9.27
4,Cc1cc(C)c2cc3c(N)c(C(=O)N4CCc5ccccc5C4)sc3nc2c1,16
5,O=C(Nc1cccc([N+](=O)[O-])c1)c1ccc2c(c1)OCO2,3.13
6,COc1cc(N)c(Cc2nccc3cc(OC)c(OC)cc23)cc1OC,7.99
7,COc1ccc(CCN2CN(S(=O)(=O)c3ccccc3)c3nc4ccccc4nc32)cc1,-5.62
8,CCN(CC)c1ccc(-c2nnc(SCC(=O)N(CCOC)c3c(N)n(CC(C)C)c(=O)[nH]c3=O)o2)cc1,-4.49
9,CC(C)CN1C(=O)C(=O)N(CC(=O)N(C)CC(=O)Nc2ccc(F)cc2)C1=O,-2.87
10,COc1ccc(N(Cc2cc3ccccc3[nH]c2=O)S(=O)(=O)c2ccccc2)cc1,14.4
11,O=c1[nH]c(N2CCN(c3ccccc3)CC2)nc2c1CCCC2,9.91
12,CCOC(=O)C1=C(C)OC(N)=C(C(=O)OCC)C1c1ccncc1 (stereo not drawn),-1.25
13,CS(=O)(=O)N(CC(=O)N1CCCC1)c1ccc(Cl)cc1Cl,13.1
14,COc1ccccc1C(=O)NC(=O)COC(=O)Cn1[nH]c(=O)c2ccccc2c1=O,7.75
15,CCC1=C(OC(=O)N(CC)CC)N2C(=O)OC(=NCCOC)[C@]2(Cc2ccccc2)[C@H]2C1=CC[C@H]1C(=O)N(C)C(=O)[C@H]12,5.87
16,COc1ccccc1CN1CCC(CNS(=O)(=O)c2cc(-c3cc(C)no3)ccc2OC)CC1,-33.2
17,C/C(=N\NC(=O)c1cccnc1)c1c(O)cc(C)oc1=O,5.67
18,Cc1ccccc1OCC(O)Cn1c2ccccc2c2ccccc21 (stereo not drawn),12.1
19,C(=N\Nc1nc(N2CCOCC2)nc(N2CCOCC2)n1)/c1ccco1,19.9
20,CC(C)Cn1c(N)c(C(=O)COC(=O)c2ccc(O)cc2)c(=O)n(C)c1=O,0.0266
21,CN(C(=O)c1ccc(OC2CCN(CCc3ccccc3)CC2)cc1)C1CCOCC1,1.29
22,O=C(CC(NC(=O)OCc1ccccc1)C(=O)O)OCc1ccccc1 (stereo not drawn),12.5
23,Cc1nc(CCNC(=O)CC2C(=O)NCCN2Cc2ccccc2F)sc1C (stereo not drawn),11.1

row,SMILES,"hERG current change (%, negative = inhibition) at 1uM [%]"
1,Cc1ccc(C)c(N2CCN(S(=O)(=O)c3ccc4c(c3)NC(=O)CS4)CC2)c1,11.2
2,CCN(C(=O)COC(=O)c1cc(-c2ccccc2)nn1-c1ccccc1)C1CCS(=O)(=O)C1 (stereo not drawn),-1.42
3,CSc1nc(S(=O)(=O)c2ccc(C)cc2)c(Cl)s1,8.02
4,CC1=C(C(=O)c2ccccc2)C(c2ccc(OC(F)F)cc2)NC(=S)N1 (stereo not drawn),6.14
5,CC1CCN(CCCCOc2ccccc2F)CC1.O=C(O)C(=O)O,7.61
6,O=S(=O)(c1ccc(Cl)cc1)N1CCn2c1nc1ccccc12,-0.183
7,COc1ccc(NC(=O)NCc2ccccn2)cc1,10.1
8,CN1CCN(c2cn[nH]c(=O)c2Cl)CC1,12.5
9,CCCc1ccc(NC(=O)C2CCCN(c3cnccn3)C2)cc1 (stereo not drawn),10.1
10,COc1ccc(C2=NOC(C(=O)NCC(C)C)C2)cc1 (stereo not drawn),7.35
11,CCN(CC(=O)NC1CCS(=O)(=O)C1)S(=O)(=O)c1ccc(C)c(C)c1 (stereo not drawn),7.39
12,CC[N+]1(CC)CC2=Cc3c(ccc4ccccc34)CC2C1.[Br-] (stereo not drawn),3.14
13,CCOc1ccc(NC(=O)N2CCC(n3c(=O)[nH]c4ccccc43)CC2)cc1,-1.3
14,O=C(CSc1nnc(CN2CCCCCC2=O)n1-c1ccccn1)NCC(F)(F)F,3.46
15,COc1ccc(CNc2nc3nc(C)c(Cl)c(C)n3n2)cc1OC,11.1
16,COc1ccc(S(=O)(=O)N2CCC(C(=O)NCc3ccncc3)CC2)cc1Cl,8.61
17,COc1ccc(NC(=O)C(C)N2C(=O)c3ccccc3S2(=O)=O)c(OC)c1 (stereo not drawn),6.98
18,Cl.Clc1ccc(OCCCN2CCc3ccccc3C2)c(Br)c1,12.2
19,OC1CSc2nc3ccccc3n2C1 (stereo not drawn),26.7
20,O=C(NCc1ccncc1)c1cncc(Br)c1,3.3
21,O=c1c(-c2ccc([N+](=O)[O-])cc2)coc2c(O)c(O)ccc12,8.94

# Source: publication PMC4336329 (PLoS ONE, 2015)
